The text below walks through data of PMC9732823, “Discovery of Dual Aβ/Tau Inhibitors and Evaluation of Their Therapeutic Effect on a Drosophila Model of Alzheimer’s Disease” (ACS Chemical Neuroscience, 2022).

For the test, the target named is Aβ42 aggregates in Aβ42 Drosophila brains (Homo sapiens, UniProt P05067, E693G). The experiment in a line: Immunofluorescence of Aβ42 aggregates in adult fly brain. The conditions noted are these: vs untreated flies, 15 days post-hatching, n=8. Format: in vivo, Drosophila melanogaster. The source says: Motivated by these positive results, we decided to study the ability of the most promising 22 to reduce the presence of amyloid plaques and aggregates in the brain of Aβ42 flies. Indeed, these flies are characterized by intracellular Aβ42 accumulation, followed by non-amyloid aggregates that resemble diffuse plaques.[56] Thus, the brains of treated and untreated flies, together with the control, were dissected and analyzed at 15 days post-hatching. […] Importantly, such deposits were nearly absent in the brains of Aβ42Drosophila flies treated with 22 (Figure 6C,D).
The dissection of each tissue analyzed was performed through the use of thin forceps in a dissection dish filled with 1% PBS solution, following a published protocol.[65] After fixation in PFA 4% (paraformaldehyde) for 20 min, the samples were cleaned from fat bodies and tracheal tube residues, in 1% PBS solution. In the end, they were moved to a 1.5 mL Eppendorf tube for the subsequent steps. The permeabilization of the membranes used PBS Triton (PBST) 0.3% solution, which is a detergent used also in tissue culture analysis. […] After washes in PBST for 20 min, each of the brains was stained with the secondary antibody (mouse FITC 1:250 Invitrogen #F2761). The samples were mounted in Fluoromount and the images were captured using a Leica confocal microscope, acquired with a 20× air objective, and a 60× mineral oil objective. […]

As for `CN(C)CCN1C(=O)S/C(=C\c2ccc3[nH]c4ccc(/C=C5\SC(=O)N(CCN(C)C)C5=O)cc4c3c2)C1=O` [Compound 22, (5Z,5′Z)-5,5′-((9H-Carbazole-3,6-diyl)bis(methanylylidene))bis(3-(2-(dimethylamino)ethyl)thiazolidine-2,4-dione)], the “reduction of aggregates in Aβ42 Drosophila adult brains” value was found to be 80%.
